# Test results as given in PubChem BioAssay AID743279 (National Center for Advancing Translational Sciences (NCATS), 2014).
# The campaign covered roughly 360,000 compounds. About 17,000 (4.7%) were called active. The inconclusive results got no clear call from the source; some entries with a clear call stand among them for comparison. No stated cut-off is given here; in the data, active means activity change below about -50%; inconclusive means mostly about -30% to -49%; inactive means weaker than that.
# Test: qHTS for Inhibitors of Inflammasome Signaling: IL-1-beta AlphaLISA Primary Screen
# Details: THP-1 LPS/ATP IL-1B secretion, 16 h; at 57.5 µM, active compounds read low
# Procedure, shortened: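 Secreted IL-1B measured by AlphaLISA bead assay after 16 h compound exposure of THP-1 cells; compounds (final up to 57.5 uM) added 1 h before LPS (250 ng/mL) and ATP (1.25 mM) stimulation; lower signal means less secretion.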
# On the % scale 0 is the no-effect control and ±100 the full control effect.
row,Compound,activity change
1,CC(C)(C)c1cc(C(=O)N/N=C/c2ccncc2)n[nH]1,inconclusive: -32.3%
2,COc1ccc(N=N/C(=C\O)C(=O)c2cccs2)cc1,active: -80.7%
3,CCc1cc(-c2[nH]ncc2-c2ccc(OC)cc2)c(O)cc1O,active: -83%
4,CC(NC(=O)C(c1ccccc1)c1ccccc1)c1ccccc1 (configuration not stated),inconclusive: -42%
5,Cn1cc(/C=C(\C#N)C(=O)Nc2ccccc2O)c2ccccc21,active: -62.5%
6,Cc1ccc(C(c2nnnn2Cc2ccccc2)N2CCN(Cc3ccccc3)CC2)cc1 (configuration not stated),inconclusive: -41.3%
7,Cc1ccc2occ(C(c3nnnn3C3CCCC3)N3CCN(C(=O)c4ccco4)CC3)c(=O)c2c1 (configuration not stated),active: -64.1%
8,O=C(CSc1nnc(-c2ccccc2)n1-c1ccccc1)c1ccc[nH]1,inactive: 0%
9,Nc1nn(-c2ccccc2)nc1C(=O)OCc1ccccc1,inconclusive: -36.9%
10,Cc1ccccc1CNc1ncnc2cc(Cl)ccc12,inactive: 52.8%
11,CC(C)OP(=O)(c1ccc(N(C)C)cc1)C(O)c1ccc(C(C)C)cc1 (configuration not stated),inactive: -13%
12,O=C(NCc1cccs1)C(=O)NCC(c1ccco1)N1CCN(c2ccc(F)cc2)CC1 (configuration not stated),inactive: -5.3%
13,Cc1cc(C)cc(N2C(N)=NC(N)=NC2c2cccc(Cl)c2)c1 (configuration not stated),active: -53.7%
14,O=C(c1ccc(Cl)s1)N1CCN(c2ccccc2)CC1,inconclusive: -39.8%
15,O=C(NCC1CCCO1)c1ccc(COc2ccccc2Br)cc1 (configuration not stated),inconclusive: -47.4%
16,CC1CCN(C(=O)c2ccc(NC3=C(Cl)C(=O)N(Cc4ccccc4)C3=O)cc2)CC1,active: -93%
17,CS(=O)c1ccccc1-c1nc(-c2cc(C(F)(F)F)cc(C(F)(F)F)c2)no1 (configuration not stated),inactive: 5.66%
18,Cc1ccc(NC(=O)CCC(=O)N/N=C/c2cccs2)cc1C,inactive: -3.3%
19,CCCCOc1ccc(C(=O)N2CCC(C)CC2)cc1,inconclusive: -30.4%
20,COc1ccc(NC(=O)CCC(=O)c2cccs2)cc1Cl,inactive: 1.78%
21,CCc1cc([N+](=O)[O-])cc(CC)c1N,inactive: -8.79%
22,C[C@H](CO)N1C[C@H](C)[C@@H](CN(C)S(=O)(=O)c2ccccc2)Oc2c(NC(=O)NC3CCCCC3)cccc2C1=O,active: -50.8%

row,Compound,activity change
1,CCN(CC)S(=O)(=O)c1ccc(C(=O)NNC(=O)C2CCN(S(=O)(=O)c3ccc(Cl)cc3)CC2)cc1,inactive: -0.478%
2,Cc1ccccc1OC(C)C(=O)NCCC1=CCCCC1 (configuration not stated),inconclusive: -32.9%
3,N#Cc1ccc(CSc2nnc(Nc3ccccc3)s2)cc1,inconclusive: -48.4%
4,O=C(NC1CCN(Cc2ccccc2)CC1)c1ccc(S(=O)(=O)NCc2ccco2)cc1,inconclusive: -43.2%
5,CC(=O)Nc1ccc(NC(=O)c2cccc3ccccc23)cc1,inactive: 5.74%
6,Cc1cc(Cl)ccc1OCC(=O)OCC(=O)N1CCC(C(N)=O)CC1,inactive: 4.86%
7,COc1ccc2c(c1)CCCC21NC(=O)N(CC(=O)NCc2cccs2)C1=O (configuration not stated),inconclusive: -30.4%
8,COc1ccc(C(=O)C[n+]2ccc3c(c2)nc(-c2ccc(OC)cc2OC)n3C)cc1,inconclusive: -35.1%
9,CC(=O)c1sc(NC(=O)CCS(=O)(=O)c2ccc(F)cc2)nc1C,active: -94.1%
10,Cc1nn(C)c(C)c1S(=O)(=O)N(CC(=O)NCCCN1CC(C)CC(C)C1)c1ccc(C(C)C)cc1 (configuration not stated),inconclusive: -36.6%
11,CCCCc1ccc(NC(=S)NCc2cccs2)cc1,inconclusive: -34.1%
12,COc1cc(CN2CCN(Cc3cn(C)c4ccccc34)CC2CCO)cc(OC)c1 (configuration not stated),inconclusive: -44.5%
13,COc1ccc(C(=O)N/N=C/c2ccc(N(C)c3ccccc3)cc2)cc1,inconclusive: -42.8%
14,CN(C)CC/C=C1/c2ccccc2Sc2ccc(Cl)cc21,inconclusive: -44.9%
15,CCOC(=O)C1=CN(Cc2cccc(-c3ccc(Cl)nc3)c2)S(=O)(=O)N(C)C1C (configuration not stated),inconclusive: -31.4%
16,COc1ccc(/C(=C\Nc2ccc(C)c(C)c2)C(C)=O)cc1OC,inconclusive: -34.2%
17,Cc1cccc(C(O)c2ncc(-c3ccc(Cl)cc3)[nH]2)c1C (configuration not stated),inactive: -7.06%
18,Cc1c(CCC(=O)N2CCC(C(=O)NCCCCCC(=O)O)CC2)c(=O)oc2cc3oc4c(c3cc12)CCCC4,inactive: -19.3%
19,CCCc1c(C(=O)N/N=C(\C)c2ccc(O)cc2)nnn1-c1nonc1N,inconclusive: -33.6%
20,CCNC(=O)CN(c1ccc(Oc2ccccc2)cc1)S(=O)(=O)c1ccccc1,inconclusive: -37.7%
21,COc1ccc(C(=O)N/C(=C\c2ccc(Cl)cc2)C(=O)NCc2ccncc2)cc1,inconclusive: -30.9%
22,Nc1ccc(Br)c[n+]1Cc1cccc2cccnc12,inconclusive: -31.6%

row,Compound,activity change
1,O=C(COc1ccc2c(-c3ccccc3)cc(=O)oc2c1)NCCCN1CCOCC1,inconclusive: -36.8%
2,CC(C)(C)OC(=O)N1CCC2(CC1)Oc1ccc(F)cc1C(=O)C21CC(c2ccccc2)=NO1 (configuration not stated),inconclusive: -49.2%
3,O=C(COc1ccccc1[N+](=O)[O-])Nc1ccc(N2CCN(C(=O)c3cccs3)CC2)cc1,inconclusive: -40.5%
4,CC(C)Cc1nnc(N)s1,inactive: -2.84%
5,CCCCNC(=O)[C@@](CC)(ONc1ccccc1C(F)(F)F)c1cccc2ccccc12,inconclusive: -38.1%
6,O=C(COc1cccc2ccccc12)N1c2ccccc2CCc2ccccc21,inconclusive: -34.8%
7,O=C(Nc1ccc2c(c1)OCCO2)c1ccc(Cl)c(Cl)c1,inconclusive: -40%
8,Cc1ccc(NC(=O)CN2C(=O)NC(C)(c3ccc(Cl)cc3)C2=O)c(Br)c1 (configuration not stated),inconclusive: -38.2%
9,Cc1ccc(/C(O)=C2/C(=O)C(=O)OC2c2ccc(Cl)cc2)cc1 (configuration not stated),inconclusive: -38.1%
10,O=C(Nc1ccc(Cl)cc1)C1C2C=CC3(O2)C1C(=O)N(CCN1CCCCC1)C3C(=O)NC1CCCCC1 (configuration not stated),inconclusive: -33%
11,CC(C)NC[C@@H](O)c1ccc(O)c(O)c1,inconclusive: -43.4%
12,CCC1CCCCN1c1nc(-c2ccncc2)nc2ccccc12 (configuration not stated),inactive: -6.75%
13,CC[C@H](C)[C@H](NC(=O)OCc1ccccc1)C(=O)OCC(=O)Nc1ccc(N2CCOCC2)cc1,inactive: 11.1%
14,CCOC(=O)c1c(C)c2c(n1C)CCC/C2=N\O,inconclusive: -45.1%
15,O=C1CN(C(=O)CSc2nnc(C3CC3)n2-c2ccccc2)c2ccccc2N1,inactive: -6.36%
16,Cc1ccc(Cl)cc1NC(=O)C(=O)N/N=C/c1ccc2c(c1)OCO2,inconclusive: -33.1%
17,Fc1ccc(NC(=S)Nc2ccccc2OC(F)F)cc1Cl,inconclusive: -31.6%
18,Cc1cc(C)c(OCC(=O)N/N=C/c2ccco2)c(C)c1,inconclusive: -34.2%
19,Clc1ncnc2scc(-c3ccc(Br)cc3)c12,inconclusive: -36.3%
20,NC(=O)CSc1nnc(-c2ccc3c(c2)OCO3)o1,inactive: 10.9%
21,CC(=O)[C@H]1CC[C@H]2[C@@H]3CCC4=CC(=O)CC[C@]4(C)[C@H]3CC[C@]12C,inconclusive: -41.5%
22,CCO[C@@H]1OC(C(=O)N2CCCCCCC2)=C[C@H](c2cn(C(C)=O)c3ccccc23)[C@H]1CCCO,active: -52.6%

row,Compound,activity change
1,Cn1c(=O)n(C)c2cc(NC(=O)c3ccccc3NS(C)(=O)=O)ccc21,inactive: 41%
2,CCCS(=O)(=O)c1nc(S(=O)(=O)c2ccc(C)cc2)c(NCCCn2ccnc2)s1,inconclusive: -35.5%
3,S=C(Nc1ccccc1)Nc1ccc2cn[nH]c2c1,inconclusive: -38.1%
4,Cc1cc2nc(-c3ccc(SCc4ccccc4C#N)nc3)[nH]c2cc1C,inconclusive: -35.7%
5,O=C1C(NS(=O)(=O)c2ccc(Cl)cc2)=C(N2CCCCC2)C(=O)c2ccccc21,inconclusive: -35.6%
6,CCN(CC)C(=O)C1CCCN(Cc2cccc(Oc3ccccc3)c2)C1 (configuration not stated),inconclusive: -31.7%
7,O=C(COC(=O)c1ccccn1)NC(=O)c1ccccc1,inactive: 0%
8,N/C(=N\OC(=O)c1cccc(Cn2cc(C(F)(F)F)ccc2=O)c1)c1ccc(Cl)cc1,inconclusive: -38.7%
9,O=C(C=Cc1ccccc1O)c1ccccc1O,active: -96.9%
10,COc1ccccc1CC(=O)Nc1nc(-c2ccc(F)c(F)c2)cs1,inconclusive: -31.6%
11,CCOC(=O)c1nc2c(=O)n(C)c(=O)n(C)c2n(C)c1=O,inactive: 24.1%
12,O=C(N/N=C/c1ccc(O)cc1O)c1ccc(CN2C(=O)c3cccc4cccc2c34)cc1,inactive: 119%
13,Nc1cc(C(=O)c2ccccc2)ccc1[N+](=O)[O-],inconclusive: -39.8%
14,Cc1cc(OCC(=O)Nc2nnc(C3CC3)s2)ccc1[N+](=O)[O-],inactive: 9.68%
15,CCCCC(O)(CCCC)C(=O)N/N=C(\C)c1ccc(Cl)cc1,active: -53.9%
16,CC(C)(C)[C@H]1C=C(C(=O)NCc2ccccc2)O[C@@H](OCc2ccc(CO)cc2)C1,inconclusive: -43.7%
17,O=C(c1cccc(F)c1)N1CCN(c2cc(N3CCCCC3)c(F)cc2[N+](=O)[O-])CC1,active: -74.4%
18,COc1cccc(CNc2ccccc2O)c1OCc1ccccc1F,active: -92.2%
19,COc1ccc(N(C)C(=O)c2ccc(NC(=O)CCS(=O)(=O)c3cccs3)cc2)cc1,inactive: 33.4%
20,CC1CCCC(NC(=O)CSc2nnc(-c3cccnc3)n2N)C1C (configuration not stated),inactive: 15%
21,O=C(Nc1ccc(CN2CCOCC2)cc1)c1ccc(-c2cccc([N+](=O)[O-])c2)o1,inconclusive: -36%
